Measurements reported in the BET-seq Pho4 binding data (Le et al. 2018).
The other results are listed elsewhere or left out. These are noisy estimates, calculated here from bound and input reads.

The sequences below were run against T1, Pho4 (S. cerevisiae) (UniProt P07270) (assay: relative binding free energy (BET-seq); higher = weaker binding). Settings: reference: library average.
T1 sequence: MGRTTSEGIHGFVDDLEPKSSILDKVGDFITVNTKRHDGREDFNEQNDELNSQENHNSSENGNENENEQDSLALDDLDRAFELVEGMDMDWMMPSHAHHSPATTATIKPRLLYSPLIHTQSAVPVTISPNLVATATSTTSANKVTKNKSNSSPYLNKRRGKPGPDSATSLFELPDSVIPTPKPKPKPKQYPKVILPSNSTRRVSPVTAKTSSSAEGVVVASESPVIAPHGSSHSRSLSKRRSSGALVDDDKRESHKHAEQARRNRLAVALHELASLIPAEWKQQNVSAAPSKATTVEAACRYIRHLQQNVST

| Sequence | relative binding free energy [kcal/mol] |
| --- | --- |
| GTGGACACGTGGTCTG | -0.13 |
| CTTGACACGTGTGGGT | -0.09 |
| GTTCACACGTGTATTG | 0.09 |
| ATTCTCACGTGGTATG | 0.28 |
| GGGCGCACGTGTGGAG | 0.03 |
| CGGTTCACGTGTGGGG | 0.31 |
| CAGATCACGTGTGGTG | 0.1 |
| TGTGGCACGTGCTGGA | -0.13 |
| GGATACACGTGGGTTG | 0.02 |
| CGAGTCACGTGAGTGG | 0.3 |
| TTCTTCACGTGTAAAT | 0.32 |
| ATACTCACGTGTGGAT | 0.35 |
| TAAGTCACGTGTAATA | 0.15 |
| AGTATCACGTGCGGGG | 0.22 |
| TGATTCACGTGAAGTA | 0.32 |
| AGATTCACGTGATTTG | 0.32 |
| CGTTACACGTGTTAAT | 0.27 |
| GAGTTCACGTGGCTCG | 0.47 |
| TTCTACACGTGAGTTA | 0.38 |
| GAGGTCACGTGATTGA | 0.37 |
| TTGTGCACGTGTGCGG | -0.16 |
| ATCGACACGTGTTGGT | 0.05 |
| GATTACACGTGATGTG | 0.22 |
| AAGCGCACGTGAGTTG | 0.21 |
| TGGAGCACGTGGCTGA | -0.12 |

| Sequence | relative binding free energy [kcal/mol] |
| --- | --- |
| TCTAGCACGTGCGGGT | -0.02 |
| AGGTTCACGTGAGCGT | 0.35 |
| AAATTCACGTGATGTT | 0.41 |
| TGTGGCACGTGTTAAG | -0.03 |
| TTGGGCACGTGTGAAG | -0.01 |
| TTGGACACGTGTAGGC | 0.09 |
| ACTTTCACGTGCGTGT | 0.2 |
| TGGCGCACGTGTTTGG | -0.06 |
| CGGGTCACGTGGAGCT | -0.01 |
| TTCAACACGTGAGGTA | 0.25 |
| TGGGCCACGTGAAGGC | 0.18 |
| TGTCTCACGTGCGGTA | 0.17 |
| ATTGTCACGTGGATGG | -0.03 |
| GGGATCACGTGTTAGA | 0.33 |
| CTTTGCACGTGTGTAT | 0.07 |
| CTAGGCACGTGGGGGT | -0.19 |
| TTCATCACGTGAAGGT | 0.23 |
| GGGGTCACGTGTCCTT | 0.12 |
| GGTATCACGTGAAGGA | 0.4 |
| TGGGACACGTGTCATG | 0.01 |
| GAGGCCACGTGGTTTG | -0.02 |
| CGTGGCACGTGGGGCG | -0.26 |
| TTGTTCACGTGCTCTA | 0.21 |
| AGAGGCACGTGTAGAA | 0.02 |
| GTGAGCACGTGATGGT | 0.04 |

| Sequence | relative binding free energy [kcal/mol] |
| --- | --- |
| GAGTGCACGTGTTCAG | 0.09 |
| TGGTACACGTGGTGAG | -0.07 |
| TGTATCACGTGGGATC | 0.06 |
| TGAATCACGTGGGGAC | 0.09 |
| GGTGGCACGTGCTTTT | -0.06 |
| CGCAGCACGTGGGATG | -0.14 |
| GGCGGCACGTGCTGCG | -0.08 |
| TATGGCACGTGTATGG | 0.09 |
| GGTCTCACGTGCGAGT | 0.3 |
| GTAAGCACGTGGTATT | -0.07 |
| TGGGCCACGTGGCGGG | -0.32 |
| TTCGGCACGTGCAGTG | -0.07 |
| AGCTGCACGTGTGGGA | 0.07 |
| AGGCTCACGTGGTGGA | 0.17 |
| AGGCACACGTGGAAGT | 0.22 |
| AAGAGCACGTGGAGTG | -0.14 |
| AAGAGCACGTGAAGTG | 0.21 |
| TCTGTCACGTGAGGTG | 0.28 |
| TTGTTCACGTGCAAGA | 0.28 |
| CGGAGCACGTGTGGAT | -0.08 |
| AATAGCACGTGGTTTT | 0 |
| AGTGGCACGTGGGGCC | -0.26 |
| CGTTACACGTGTGATG | -0.01 |
| CAGGGCACGTGGTTCT | -0.03 |
| GTTGTCACGTGTTCGA | 0.06 |

| Sequence | relative binding free energy [kcal/mol] |
| --- | --- |
| ATCGTCACGTGATTTT | 0.19 |
| TTAATCACGTGTAGTT | 0.15 |
| GAGTGCACGTGCGTGT | -0.04 |
| TAATGCACGTGTTTTT | 0.03 |
| TTGTCCACGTGTGGTA | 0.03 |
| ACGGTCACGTGGGCGT | -0.21 |
| CTTGGCACGTGCGTGA | -0.2 |
| CTTGTCACGTGTCGTA | 0.13 |
| GGGGACACGTGGCGGC | -0.01 |
| GTGGTCACGTGAGGTG | 0.25 |
| AGGGTCACGTGAAATA | 0.22 |
| CGGCACACGTGGGGTA | -0.12 |
| GGAAGCACGTGAGTAG | 0.15 |
| GGCTTCACGTGACGGT | 0.31 |
| GTTTGCACGTGTATAC | 0.01 |
| TAGGGCACGTGGAGTG | -0.12 |
| TGTAACACGTGGGTCT | -0.05 |
| CGGTTCACGTGTGTAT | 0.16 |
| GTTGGCACGTGCATCG | -0.18 |
| AAGTGCACGTGGTGTT | -0.11 |
| ATAGTCACGTGATGAA | 0.18 |
| AGTTACACGTGGGATC | 0.06 |
| GAGGGCACGTGAGTTC | 0.23 |
| AATTACACGTGTTGTT | 0.11 |
| GGAATCACGTGTAAGG | 0.19 |

| Sequence | relative binding free energy [kcal/mol] |
| --- | --- |
| ATAGTCACGTGTGAAG | 0.12 |
| CAGTTCACGTGGGTTA | 0.2 |
| TTTTACACGTGTCAGT | 0.13 |
| ATTAGCACGTGTTTCT | 0.07 |
| ATTAGCACGTGGTCTG | -0.26 |
| TGGCTCACGTGAGGGT | 0.28 |
| GATCGCACGTGGGGGA | -0.24 |
| TGAGTCACGTGGACTG | 0.08 |
| GGTTCCACGTGTGGGA | 0.11 |
| TATTACACGTGTTTTC | 0.09 |
| ATTGGCACGTGCTGAG | -0.15 |
| ATGTCCACGTGAGGTG | 0.1 |
| CATGGCACGTGAGGGA | -0.02 |
| TTTGACACGTGGGTCA | -0.15 |
| CTACGCACGTGTTGGT | -0.15 |
| AAGGTCACGTGGCTTT | 0.19 |
| CGCTGCACGTGGGGGG | -0.23 |
| ATGGACACGTGAGTGC | 0.16 |
| AGTAGCACGTGGGTGA | -0.26 |
| ATTCTCACGTGTAGTG | 0.36 |
| AGGTACACGTGAAAGT | 0.23 |
| GGAGGCACGTGGATTT | -0.04 |
| ACGGGCACGTGGGTTT | -0.21 |
| AGTTTCACGTGCGTGG | 0.16 |
| GGGGTCACGTGAACGT | 0.24 |

| Sequence | relative binding free energy [kcal/mol] |
| --- | --- |
| GTTGGCACGTGGGGGA | -0.14 |
| GGGAGCACGTGTTTTA | -0.08 |
| GATAACACGTGATGTA | 0.28 |
| TAGTACACGTGGATTT | 0.06 |
| TTAGGCACGTGGCGCG | -0.33 |
| TGTGGCACGTGGTCGA | -0.18 |
| ACGGGCACGTGTTTGT | -0.16 |
| AGATTCACGTGTTCGA | 0.25 |
| CAGCGCACGTGGGGGA | -0.25 |
| TGCTGCACGTGGGTCG | -0.17 |
| TTTAACACGTGTTAGA | -0.05 |
| TTTTTCACGTGTGTCA | 0.32 |
| GTTGCCACGTGAGGAG | 0.2 |
| TCGATCACGTGAGGGT | 0.39 |
| TGATGCACGTGTGGGC | -0.03 |
| GGGTCCACGTGGGATT | 0.04 |
| TGTCGCACGTGGTAAG | -0.06 |
| ATAGGCACGTGAAGGT | 0.1 |
| TGTTCCACGTGTTTGA | 0.18 |
| ACAGACACGTGGTTGG | -0.08 |
| TTTGTCACGTGTATAC | 0.02 |
